Measured values published in US20210275641A1 (SYNTHEKINE, published 2021).

Target: T1, human high affinity trimeric IL-2 receptor (CD25/CD122/CD132) (human, UniProt P01589 22-272; P14784 27-551; P31785 23-369)
T1 sequence 1: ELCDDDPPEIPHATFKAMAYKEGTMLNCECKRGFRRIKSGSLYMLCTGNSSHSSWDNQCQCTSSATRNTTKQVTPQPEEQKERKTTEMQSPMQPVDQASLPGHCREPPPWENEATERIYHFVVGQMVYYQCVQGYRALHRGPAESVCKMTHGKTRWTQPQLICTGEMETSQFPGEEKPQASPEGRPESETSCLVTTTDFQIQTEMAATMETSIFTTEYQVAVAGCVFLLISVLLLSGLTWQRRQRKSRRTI
T1 sequence 2: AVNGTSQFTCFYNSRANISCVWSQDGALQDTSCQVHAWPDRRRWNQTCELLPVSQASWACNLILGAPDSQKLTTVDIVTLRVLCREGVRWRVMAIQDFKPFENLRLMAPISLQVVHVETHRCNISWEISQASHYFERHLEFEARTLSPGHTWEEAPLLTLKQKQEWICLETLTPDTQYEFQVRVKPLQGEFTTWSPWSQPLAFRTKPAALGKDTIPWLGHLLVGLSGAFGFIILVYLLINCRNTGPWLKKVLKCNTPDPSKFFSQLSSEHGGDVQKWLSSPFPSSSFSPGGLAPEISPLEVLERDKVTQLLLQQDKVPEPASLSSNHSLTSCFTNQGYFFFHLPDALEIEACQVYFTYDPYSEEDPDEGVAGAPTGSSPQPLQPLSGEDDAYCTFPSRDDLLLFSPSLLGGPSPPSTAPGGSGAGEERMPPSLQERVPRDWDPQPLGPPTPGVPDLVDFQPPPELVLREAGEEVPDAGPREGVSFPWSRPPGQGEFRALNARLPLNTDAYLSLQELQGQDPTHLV
T1 sequence 3: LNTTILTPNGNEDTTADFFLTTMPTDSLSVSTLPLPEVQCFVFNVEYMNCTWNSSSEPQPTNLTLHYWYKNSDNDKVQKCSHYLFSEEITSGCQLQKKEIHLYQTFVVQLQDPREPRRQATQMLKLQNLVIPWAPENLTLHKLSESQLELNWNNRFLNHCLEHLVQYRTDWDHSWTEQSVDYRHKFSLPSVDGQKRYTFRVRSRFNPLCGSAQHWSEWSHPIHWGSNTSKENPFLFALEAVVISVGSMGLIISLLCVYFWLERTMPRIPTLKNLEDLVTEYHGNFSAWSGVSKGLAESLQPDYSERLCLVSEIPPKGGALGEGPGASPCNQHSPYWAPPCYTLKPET
Test: cell-based or functional assay

B1: huIL2 Q126H (--H) (ligand)
cytokine: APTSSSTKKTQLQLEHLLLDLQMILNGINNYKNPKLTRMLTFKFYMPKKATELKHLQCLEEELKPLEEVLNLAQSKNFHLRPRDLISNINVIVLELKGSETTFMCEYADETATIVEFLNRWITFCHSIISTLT
pSTAT5 ratio YT CD25/YT, dilution factor 2, upper table: 0.8 | pSTAT5 ratio YT CD25/YT, dilution factor 4, upper table: 0.9 | pSTAT5 ratio YT CD25/YT, dilution factor 8, upper table: 0.9 | pSTAT5 ratio YT CD25/YT, dilution factor 16, upper table: 1 | pSTAT5 ratio YT CD25/YT, dilution factor 32, upper table: 1.1 | pSTAT5 ratio YT CD25/YT, dilution factor 64, upper table: 1.2 | pSTAT5 ratio YT CD25/YT, dilution factor 128, upper table: 2

B2: huIL2 V91K (ligand)
cytokine: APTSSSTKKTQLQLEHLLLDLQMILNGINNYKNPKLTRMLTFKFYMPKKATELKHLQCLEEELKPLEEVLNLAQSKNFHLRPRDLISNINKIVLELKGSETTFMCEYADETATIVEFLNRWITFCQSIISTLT
pSTAT5 ratio YT CD25/YT, dilution factor 2, upper table: 1 | pSTAT5 ratio YT CD25/YT, dilution factor 4, upper table: 1.2 | pSTAT5 ratio YT CD25/YT, dilution factor 8, upper table: 1.5 | pSTAT5 ratio YT CD25/YT, dilution factor 16, upper table: 2.3 | pSTAT5 ratio YT CD25/YT, dilution factor 32, upper table: 4.2 | pSTAT5 ratio YT CD25/YT, dilution factor 64, upper table: 6.7 | pSTAT5 ratio YT CD25/YT, dilution factor 128, upper table: 10.7

B3: huIL2 L18R (R--) (ligand)
cytokine: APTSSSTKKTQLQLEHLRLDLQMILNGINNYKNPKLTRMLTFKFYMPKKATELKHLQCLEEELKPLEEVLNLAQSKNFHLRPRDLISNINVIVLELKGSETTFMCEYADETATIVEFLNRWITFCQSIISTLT
pSTAT5 ratio YT CD25/YT, dilution factor 2, upper table: 0.8 | pSTAT5 ratio YT CD25/YT, dilution factor 4, upper table: 0.9 | pSTAT5 ratio YT CD25/YT, dilution factor 8, upper table: 1 | pSTAT5 ratio YT CD25/YT, dilution factor 16, upper table: 1 | pSTAT5 ratio YT CD25/YT, dilution factor 32, upper table: 1.1 | pSTAT5 ratio YT CD25/YT, dilution factor 64, upper table: 1.4 | pSTAT5 ratio YT CD25/YT, dilution factor 128, upper table: 2.7

B4: huIL2 Q22E (-E-) (ligand)
cytokine: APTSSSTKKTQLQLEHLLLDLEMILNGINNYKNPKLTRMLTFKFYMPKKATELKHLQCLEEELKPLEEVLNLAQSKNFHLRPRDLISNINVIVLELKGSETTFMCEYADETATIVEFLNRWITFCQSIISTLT
pSTAT5 ratio YT CD25/YT, dilution factor 2, upper table: 0.8 | pSTAT5 ratio YT CD25/YT, dilution factor 4, upper table: 0.9 | pSTAT5 ratio YT CD25/YT, dilution factor 8, upper table: 0.9 | pSTAT5 ratio YT CD25/YT, dilution factor 16, upper table: 1 | pSTAT5 ratio YT CD25/YT, dilution factor 32, upper table: 1 | pSTAT5 ratio YT CD25/YT, dilution factor 64, upper table: 1.3 | pSTAT5 ratio YT CD25/YT, dilution factor 128, upper table: 2
